Reference: paper PMC4336329 (PLoS ONE, 2015)
Out of some 310,000 compounds screened, about 2,200 (0.71%) showed an effect of 50% or more. The effect is printed as a negative number. The list shows a part of the results.

Target: human ether-à-go-go-related gene (hERG) potassium channel (human, UniProt Q12809)
Test: primary screen, population patch clamp on CHO cells stably expressing hERG

human ether-à-go-go-related gene (hERG) potassium channel, sequence (Q12809 whole entry, looked up): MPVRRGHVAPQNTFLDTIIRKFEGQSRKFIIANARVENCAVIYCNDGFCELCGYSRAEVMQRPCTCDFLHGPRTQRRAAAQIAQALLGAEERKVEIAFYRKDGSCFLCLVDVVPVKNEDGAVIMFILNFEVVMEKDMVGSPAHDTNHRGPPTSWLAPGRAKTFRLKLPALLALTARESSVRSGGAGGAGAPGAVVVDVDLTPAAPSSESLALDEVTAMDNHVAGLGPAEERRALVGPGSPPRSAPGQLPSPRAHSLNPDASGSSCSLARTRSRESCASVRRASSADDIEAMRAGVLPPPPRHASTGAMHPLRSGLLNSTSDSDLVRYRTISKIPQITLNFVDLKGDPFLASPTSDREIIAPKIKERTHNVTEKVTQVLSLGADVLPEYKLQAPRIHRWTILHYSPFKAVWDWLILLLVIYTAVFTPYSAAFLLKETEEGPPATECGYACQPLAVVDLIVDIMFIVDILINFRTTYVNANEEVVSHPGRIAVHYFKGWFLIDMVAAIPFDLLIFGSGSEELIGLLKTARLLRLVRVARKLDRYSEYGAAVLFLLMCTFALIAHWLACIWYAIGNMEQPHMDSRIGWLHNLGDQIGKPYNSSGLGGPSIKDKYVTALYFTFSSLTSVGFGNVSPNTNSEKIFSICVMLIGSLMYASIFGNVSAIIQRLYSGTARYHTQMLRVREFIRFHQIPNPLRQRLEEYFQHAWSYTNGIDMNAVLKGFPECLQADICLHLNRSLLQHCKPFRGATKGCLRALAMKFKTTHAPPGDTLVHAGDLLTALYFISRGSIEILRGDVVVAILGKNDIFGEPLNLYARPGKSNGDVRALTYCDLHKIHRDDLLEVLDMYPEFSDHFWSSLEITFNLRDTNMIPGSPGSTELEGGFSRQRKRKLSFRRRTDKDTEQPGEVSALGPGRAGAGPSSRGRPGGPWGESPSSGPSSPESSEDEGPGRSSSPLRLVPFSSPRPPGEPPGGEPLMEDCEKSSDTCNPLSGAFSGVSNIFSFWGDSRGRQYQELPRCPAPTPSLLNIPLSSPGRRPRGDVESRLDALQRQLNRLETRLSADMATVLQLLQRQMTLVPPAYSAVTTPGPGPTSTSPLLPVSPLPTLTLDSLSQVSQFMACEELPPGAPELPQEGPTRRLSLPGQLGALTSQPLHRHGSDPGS

Row | Compound | hERG current change (%, negative = inhibition) at 1uM [%]
1 | O=C(Cn1c(=O)oc2ccccc21)N(Cc1ccccc1)C1CCS(=O)(=O)C1 (stereo not shown) | 5.58
2 | O=C(O)c1ccc2c(c1)C(=O)N(c1cc([N+](=O)[O-])ccn1)C2=O | 10.8
3 | CCCCNC(=O)c1nc2ncc(Br)cn2n1 | -2.19
4 | CCN1CC2([N+](=O)[O-])C=CC(=O)C([N+](=O)[O-])(C1)C2CC(=O)c1ccccc1 (stereo not shown) | 11.6
5 | CCCN(C(=O)COC(=O)CC1CCCCC1)c1c(N)n(Cc2ccccc2)c(=O)[nH]c1=O | 13.7
6 | S=C(NC1CC1)NC1CCCc2ccccc21 (stereo not shown) | 12.7
7 | CCCCn1c(SCC(=O)NCc2ccco2)nc2c(sc3ccccc32)c1=O | -4.7
8 | CCOC(=O)c1ccc(NC(=O)Nc2ccc3c(c2)OCCO3)cc1 | 8.05
9 | O=C(CS(=O)(=O)c1ccccc1)Nc1ccc(N2CCOCC2)cc1 | 11
10 | Cc1ccc(-n2nc(C(=O)O)nc2-c2ccccc2)cc1 | -0.628
11 | Cc1ccc(SCCc2cc[n+](CC(=O)c3ccccc3)cc2)cc1 | -46.5
12 | COc1cc(C2CC(=O)Oc3c(C(CCN4CCOCC4)c4ccc(N(C)C)cc4)c(OC)cc(OC)c32)cc(OC)c1OC (stereo not shown) | 9.04
13 | C/C=C(/C)C(=O)O[C@H]1[C@@H](O)c2c(ccc3ccc(=O)oc23)OC1(C)C | 11.6
14 | CN(Cc1ccccc1)S(=O)(=O)c1ccc2c(c1)CCC(=O)N2 | 14.1
15 | O=C1CCC(/C=C/c2ccccc2)=NN1Cc1ccccc1 | 10.7
16 | COc1ccc(/C(N)=N/OC(=O)c2cccc([N+](=O)[O-])c2)cc1OC | -1.16
17 | CN(C)c1c(N)c(=O)oc2ccccc12 | 9.47
18 | CC(C)(C)C(=O)N1CCCC1C(=O)O (stereo not shown) | 9.12
19 | CCC(=O)Nc1ccc(Oc2ccc3c(c2)C(=O)N(c2ccc(O)cc2)C3=O)cc1 | 13.7
20 | CNC(=S)/N=C(/Nc1ccccc1)c1ccccc1 | -2.09
21 | COc1ccccc1OCCCCn1c(C(C)O)nc2ccccc21 (stereo not shown) | 10.7
22 | CCOc1ccc(NC(=O)N2CCCC2C(=O)NCc2ccco2)cc1 (stereo not shown) | 12.8
23 | Cc1cc(OCC(O)CNC(C)c2ccccc2)ccc1C(C)C.Cl (stereo not shown) | 8.02
24 | COc1ccc([N+](=O)[O-])cc1NC(=O)C(C)OC(=O)CSC(C)C(=O)Nc1cc(C)on1 (stereo not shown) | 3.66
25 | COC(=O)C1CCN(C(=O)COC(=O)c2ccc(OC)c(S(=O)(=O)N3CCCc4ccccc43)c2)CC1 | -4.43
26 | Cc1cc(=O)[nH]c(-n2ncc(C#N)c2N)n1 | 22.1
27 | CN(c1ccc(C(=O)N2CCN(Cc3ccc4c(c3)OCO4)CC2)cc1)S(=O)(=O)c1ccccc1 | -15.1
28 | NC(=O)CC[C@@H]1NC(=O)[C@@H]2CCCN2C(=O)c2cc([N+](=O)[O-])cc(I)c2NCCCC[C@@H](C(=O)NC(CC(=O)O)C(N)=O)NC1=O (stereo partly shown) | 3.24

Row | Compound | hERG current change (%, negative = inhibition) at 1uM [%]
29 | Cc1ccc(NC(=S)NCCO)c(C)c1 | 4.58
30 | CNC(=S)N(Cc1ccc(Cl)cc1)Cc1cccs1 | 11.2
31 | CC(C)c1ccc(C(CC(=O)O)NC(=O)c2cccs2)cc1 (stereo not shown) | 16.2
32 | CCc1nnc(NS(=O)(=O)c2ccc(Nc3ccc4nonc4c3[N+](=O)[O-])cc2)s1 | 13.3
33 | O=C(NCc1ccco1)/C(=C\c1ccccc1)NC(=O)c1ccccc1 | 13.9
34 | Cc1c(C)c2c(OCC(=O)NCC(=O)NCC(=O)O)cc3c(c2oc1=O)CCC(C)(C)O3 | 11.9
35 | O=C(Cn1ccc([N+](=O)[O-])n1)NCc1ccccc1 | 12.2
36 | O=C(O)c1cccc2c1C(=O)N(C1CCCCC1)C2 | -6.48
37 | Cc1ccc(C)c(SCC(=O)OCC(=O)Nc2ccc(S(=O)(=O)N3CCOCC3)cc2)c1 | 19.6
38 | O=C(CSCc1ccc(Cl)cc1)NCc1ccccn1 | 9.26
39 | COc1ccc(CCNC(=O)c2c(O)c3cccc4c3n(c2=O)CC4)cc1 | 2.5
40 | Cl.O=C(c1cccc(S(=O)(=O)NCc2ccccc2)c1)N1CCN(Cc2ccccc2)CC1 | -0.767
41 | COCCN1C(=O)c2oc3ccccc3c(=O)c2C1c1cccc(O)c1 (stereo not shown) | 10.6
42 | CCOC(=O)c1ccc(COC(=O)c2ccc3c(c2)-c2ccccc2C3=O)cc1 | 10.1
43 | Nc1ncc([N+](=O)[O-])s1 | 11.3
44 | O=C(N/N=C/c1ccc(OC(=O)c2ccccc2Cl)cc1)c1ccccn1 | 5.52
45 | Cc1ccc(Cn2c(CN3CCOCC3)nc3c2c(=O)[nH]c(=O)n3C)cc1 | -2.6
46 | Cc1cc(C)n(CC(C)NC(=O)c2cc(COc3c(F)cccc3F)on2)n1 (stereo not shown) | 4.74
47 | Cc1ccc(C)c(N2CCN(c3ncccc3[N+](=O)[O-])CC2)c1 | 1.38
48 | Cc1ccc(CNS(=O)(=O)c2ccc3c(c2)CCN3C(=O)CCCC(=O)O)cc1 | 4.17
49 | O=C1CCC(=O)N1c1ccc(-c2nc3ccccc3s2)cc1 | 13.6
50 | COc1cc(C2=NOC(C(=O)NCc3ccco3)C2)cc(OC)c1OC (stereo not shown) | -2.53
51 | Cc1ccc(-c2cc3nc(-c4ccc(Br)cc4)cc(N)n3n2)cc1 | 4.38
52 | CCc1ccc(OCC(=O)Nc2ccc3c(c2)COC3=O)cc1 | -6.5
53 | CCN(CC)C(=O)Cn1cc(SCC(=O)Nc2cc(C)on2)c2ccccc21 | 3.18
54 | CC1CCC2(CC1)NC(=O)N(CC(=O)Nc1cccc(S(=O)(=O)N3CCOCC3)c1)C2=O (stereo not shown) | 8.22
55 | CCc1cc2ccc(C)cc2nc1SCC(=O)Nc1cc(C)on1 | 11.7
